A short description of data set [1]: Early investigational study of four dose levels of KM: detection of KM over time. The format is in vivo, human. Conditions: 0.3, 1.0, 3.0, 10 mg/kg; even at the lower doses; assay data up to Day 45. The protocol: An early investigational study looking at four dose levels of KM (0.3 mg/kg, 1.0 mg/kg, 3.0 mg/kg, 10 mg/kg) was undertaken. […] As such, taken together with the known potential for monoclonal antibody induced immunotoxicity at higher doses, anti-KMA antibodies were considered good candidates for low dosing. Accordingly, the phase IIb study described below was designed based on these low doses.

Data set [2] relates to relapsed/refractory multiple myeloma (KRRMM). As to the kind of experiment: Phase IIb multi-centre open label sequential cohort study: efficacy (CBR, ORR, PFS, OS, DoR, TTNT, sFLC), with Rd-MRDR matched registry controls. The format is in vivo, human. An excerpt:
(§1) Phase IIb, multi-centre, open label sequential cohort study evaluating kappamab (KM) alone (KM, Stage 1) and then KM in combination with lenalidomide (LEN) and dexamethasone (DEX) (KM-Rd, Stage 2) in relapsed/refractory multiple myeloma (KRRMM). Key inclusion criteria for both stages were progressive kappa-restricted multiple myeloma (KMM) (as per International Myeloma Working Group (IMWG) criteria, Kumar et al. 2016), 1-3 prior lines of therapy and no prior LEN exposure.
(§2) Recruitment was planned for 60 patients in total, with an initial intention to treat 30 patients per stage. In Stage 1, patients received KM (10 mg/kg intravenous (IV) infusion) weekly for 8 weeks then every 4 weeks as maintenance. In Stage 2, KM dosing was as per Stage 1 with the addition of LEN, 25 mg Days 1-21 of each 28-day cycle and DEX 40 mg weekly, apart from Cycle 1 which was of 35 days duration (28-day cycles from Cycle 2 onwards) as patients commenced LEN for 21 days and DEX 1 week prior to starting KM (FIG. 1). All patients received anti-viral, thromboembolic prophylaxis and osteolytic prophylaxis as per institutional practice. Treatment continued until unacceptable toxicity, progression, death or withdrawal of consent. Response rates and any adverse events (AEs) were periodically assessed.
The overall response rate (ORR), overall survival (OS) and progression free survival (PFS) of the KM-Rd cohort was compared to a contemporaneous control group of KMM patients who had received Rd for RRMM (Rd-MRDR group), identified via the Australian and New Zealand Myeloma and Related Diseases Registry (MRDR) (www dot mrdr dot net dot au/), who were matched for age, gender and prior lines of therapy (Table 3). […] Both the KM-Rd and MRDR cohorts had 26% of patients with ISS stage 3 at baseline, while the KM cohort had 33% who were ISS stage 3 at baseline. A limitation of this Rd-MRDR dataset was that patients had their disease status recorded only every 4 months, however an advantage of this dataset was that OS was regularly cross referenced with the Australian Institutes of Health and Welfare National Death Index (www dot aihw dot gov dot au/about-our-data/our-data-collections/national-death-index). Importantly, both the KM-Rd cohort and the Rd MRDR controls were treated within the same time period and with similar supportive care and access to both reimbursed pomalidomide and carfilzomib but neither CD38 nor BCMA targeting immune therapies.
The primary endpoint for both Stage 1 and Stage 2 was the clinical benefit rate (CBR). Patients were evaluated every 28 days for both OS and PFS while on study. Comparison of CBR, ORR, OS and PFS between KM-Rd and Rd-MRDR groups was done after the data cut-off. […]
Demographic and baseline characteristics were compared between the KM-Rd cohort and the Rd-MRDR controls using a Chi-squared test. CBR and ORR were estimated as simple percentages and 95% credible intervals (CI) were calculated as specified in the protocol using the pbeta and qbeta functions in R Version 4. A descriptive analysis of each of the time-to-event endpoints (DoR, TTNT, OS and PFS) in each stage used the Kaplan-Meier (product-limit) method to estimate the survival functions, with conventional 95% confidence intervals (CI) for the median survival time, DoR, TTNT, OS and PFS calculated using the Brookmeyer and Crowley method. […]

The subject of data set [3] is patients with relapsed/refractory multiple myeloma (KRRMM). Briefly: Phase IIb study: safety (adverse events, infusion-related reactions, discontinuations). The format is in vivo.
Text: as §1, §2

The mark [4] stands for this setting: treatment emergent non-haematologic AE.

B1: KM: humanized form of K121 anti-KMA antibody; VH of SEQ ID NO: 1 and VL of SEQ ID NO: 2 (antibody)
heavy: EVQLQQSGAELVKPGASVKLSCTASGFNIKDTYMHWVKQRPEQGLEWIGRIDPANGNTKYDPKFQGKATIIADTSSNTAYLQLSSLTSEDTAVYYCARGVYHDYDGDYWGQGTTLTVSSASTKGPSVFPLAPSSKSTSGGTAALGCLVKDYFPEPVTVSWNSGALTSGVHTFPAVLQSSGLYSLSSVVTVPSSSLGTQTYICNVNHKPSNTKVDKRV[skipping human IgG1 Fc]
light: DIVMTQSQKFMSTSVGDRVSVTCKASQNVGTNVAWYQQKPGQSPKALIYSTSYRYSGVPDRFTGSGSGTDFTLTISNVQSEDLAEYFCQQYNSYPYTFGGGTKLEIKRTVAAPSVFIFPPSDEQLKSGTASVVCLLNNFYPREAKVQWKVDNALQSGNSQESVTEQDSKDSTYSLSSTLTLSKADYEKHKVYACEVTHQGLSSPVTKSFNRGEC
Regarding B1, the “KM could still be detected until” value in data set [1] is at least 15 days. Besides, in data set [2] (at the study censor date), the discontinuation for progression was determined as 84%. Moreover, in data set [2] (minimal response or better per IMWG criteria), the “Clinical Benefit Rate (CBR)” value is 5%. Also, the “median OS” value in data set [2] (overall survival) was “not reached”. The “Overall Response Rate (ORR)” value in data set [2] (partial response or better per IMWG criteria) is reported as 5%. Also, the “median PFS” value in data set [2] (progression free survival) is on record as 2.0 months. Also, the haematologic toxicities entry in data set [3] (KM alone (Stage 1)) is reported as “no haematologic toxicities reported”. For the same molecule, in data set [3] (Stage 1), the “Grade 1 infusion related reactions, number” value was “one” and the “Grade 2 infusion related reactions, number” value is “two”. Further, the “patients who experienced an infusion related reaction (IRR)” value in data set [3] (Stage 1, 3/19 patients) is 15.8%. For the same molecule, in data set [3] (infrequent and low-grade), the “KM-related IRRs” value is on record as 14%. In data set [3] (setting [4]), the “Abdominal pain, All grade” value came to 5%; the “Cellulitis, All grade” value is given as 10%; the “Cellulitis, Grade 3” value turned out to be 5%; the “Diarrhoea, All grade” value was 5%. Besides, in data set [3] (setting [4]), the “Fatigue, All grade” value was 32%; the “Infusion related reaction, All grade” value was 16%; the “Pain, All grade” value worked out at 5%; the “Rash, All grade” value came to 16%. Also, the “URTI, All grade” value in data set [3] (setting [4]) is 5%.

The values above are taken from patent US20260273051A1, “A DOSING REGIMEN” (HaemaLogiX Ltd., priority 2023, published 2026).
